Data published in PubChem BioAssay AID686978 (National Center for Advancing Translational Sciences (NCATS), 2013).
Among all 420,000 compounds or so, about 64,000 (15%) were called active. The shares of active, inactive and inconclusive entries below differ from those in the screen. Calls come from the whole dose curve; as a rule, active = well fitted inhibition curve with a large enough effect; inconclusive = small, poorly fitted or top-dose-only effect; inactive = flat fitted curve, though single readings scatter. Potencies of inconclusive entries are left out as doubtful fits.

Test: qHTS for Inhibitors of human tyrosyl-DNA phosphodiesterase 1 (TDP1): qHTS in cells in absence of CPT; note: nearly all actives have a fitted effect of over 55% in size
Conditions: DT40 Tdp1-/- hTDP1 cells, no CPT, ATP luminescence, 48 h; activity change, negative = growth inhibition: at 46.2 µM (top of the series)
Outline: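 DT40 Tdp1-/-;hTDP1 cells, no CPT (DMSO vehicle only), 400 cells/well; compounds pin-transferred; ≥48 hr, 37 °C; CellTiter-Glo 30 min RT dark, luminescence read.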
% is set by controls: 0 for no effect and ±100 for the full control effect; potency is the fitted concentration of half-maximal effect; tags give direction and shape of the fitted curve.

Compound | activity change, negative = growth inhibition | Potency
O=C(NS(=O)(=O)c1ccc(NC(=O)C2CCCO2)cc1)c1ccccc1 (stereo not given) | inactive: 3.97% | –
Nn1cnnc1SCC(=O)Nc1ccc(C2CCCCC2)cc1 | inactive: -12.4% | –
O=C(NCc1cccnc1)C1CC(c2ccccc2Cl)=NO1 (stereo not given) | – | inconclusive [inhibitor, single point]
Cc1cccc2sc(NNC(=O)C3COc4ccccc4O3)nc12 (stereo not given) | – | inconclusive [inhibitor, single point]
COCCNC(=O)CN1C(=O)COc2ccc(S(=O)(=O)N3CCOCC3)cc21 | inactive: -6.73% | –
Cc1cc(C)n(-c2ccc(NC(=O)C3CCN(Cc4ccc(C)o4)CC3)cc2)n1 | – | inconclusive [inhibitor, single point]
O=C1CCC([N+](=O)[O-])C(c2ccc(-c3ccccc3)cc2)N1 (stereo not given) | inactive: -27.9% | –
O=C1c2cc(F)ccc2OC2(CCNCC2)C12CC(c1ccccc1)=NO2 (stereo not given) | – | inconclusive [inhibitor, single point]
O=C(O)C1CCCCC1C(=O)Nc1nc(-c2cccs2)cs1 (stereo not given) | inactive: -15.8% | –
COc1ccc(N=C2SC(C(=O)Nc3ccc4c(c3)OCO4)CC(=O)N2C)cc1 (stereo not given) | – | inconclusive [inhibitor, partial curve]
COc1cc(NC(=O)COC(=O)/C=C/c2c(C)nn(-c3ccc(F)cc3)c2Cl)cc(OC)c1 | – | inconclusive [inhibitor, single point]
C/C(=N\NS(=O)(=O)c1c(C)cc(C)cc1C)c1ccncc1 | inactive: -15.7% | –
COC(=O)[C@]12CCCCC=C1N(CCC1=CCCCC1)C(=O)[C@H](CC(=O)NCc1cccc3ccccc13)C2 | – | inconclusive [inhibitor, single point]
Cc1ccc(S(=O)(=O)N2CCCCC2C(=O)Nc2ccc(N(C)C)cc2)cc1 (stereo not given) | – | inconclusive [inhibitor, single point]
COc1cccc(CNC(=O)CCC2CCCN(C(=O)c3ccoc3C)C2)c1 (stereo not given) | – | inconclusive [inhibitor, single point]
COc1ccc(C(=O)c2ccc3oc(-c4ccc(OC)cc4)c(C#CCCO)c3c2)cc1 | inactive: -11.8% | –
COc1cc(C(=O)Nc2ccc(N(C)C)cc2)c([N+](=O)[O-])cc1OC | inactive: -2.27% | –
COc1ccc(-n2c3nc4ccccc4nc3c3c(=N)oc(C)nc32)cc1 | – | inconclusive [inhibitor, partial curve, poor fit]
Cc1cccc(NC(=O)CNC(=O)c2ccco2)n1 | inactive: -2.16% | –
CCOC(=O)c1c(C)[nH]c(C)c1C(=O)CSc1nc2ccccc2c(=O)n1-c1ccc(CC)cc1 | – | active: 6.51 µM
CCc1ccccc1N(C)C(=O)Nc1cn(CC(C)C)c(=O)c2ccccc12 | – | active: 23.1 µM
Clc1ccc(-n2ncc3c(NCc4ccco4)ncnc32)cc1 | – | active: 14.6 µM
C=Cc1ccc(CSc2nc(-c3ccccc3C)nc3c2Cc2c(CO)cnc(C)c2O3)cc1 | – | active: 20.6 µM

Compound | activity change, negative = growth inhibition | Potency
Cc1ccc(CNC(=O)c2cc(-c3ccccc3)nn2CC2CC(c3cccc([N+](=O)[O-])c3)=NO2)cc1 (stereo not given) | – | inconclusive [inhibitor, partial curve]
O=C(Nc1nc(-c2ccc([N+](=O)[O-])cc2)cs1)C1=COCCO1 | – | active: 9.2 µM
Cc1cc(NC(=O)CSc2ncc(C(F)(F)F)cc2Cl)no1 | inactive: -18.9% | –
CCOc1ccc(CNC(=O)CCn2c(=O)c3cccn3c3cccnc32)cc1 | inactive: -12.2% | –
CCN1C(=O)c2cccc3c(NC(=O)c4ccccc4)ccc1c23 | – | inconclusive [inhibitor, partial curve]
COc1ccc(N2CC(C(=O)Nc3cc(C(F)(F)F)ccc3N3CCCC3)CC2=O)c(OC)c1 (stereo not given) | – | active: 23.1 µM
O=C(NC(=S)Nc1ccccc1N1CCCC1)c1ccc(F)cc1 | – | inconclusive [inhibitor, single point]
COc1ccc(N2CCN(S(=O)(=O)c3ccc(OC)c(C(=O)N4CCOCC4)c3)CC2)cc1 | inactive: -13.4% | –
CCOc1cc(C(=O)Nc2ccc(S(=O)(=O)Nc3cnc4ccccc4n3)cc2)cc(OCC)c1OCC | – | inconclusive [inhibitor, single point]
CCOc1ccc(CCNC(=O)CN2C(=O)CCSc3ccccc32)cc1 | – | inconclusive [inhibitor, single point]
CCC(=O)N1CCc2cc(S(=O)(=O)NCCC(=O)NC3CCCc4ccccc43)ccc21 (stereo not given) | – | inconclusive [inhibitor, single point]
CCSc1nnc(NC(=O)CSc2nnc(Cc3cccn3C)n2-c2ccc(F)cc2)s1 | – | inconclusive [inhibitor, partial curve]
Nc1nc2cc(S(=O)(=O)N3CCOCC3)ccc2o1 | – | inconclusive [inhibitor, single point]
Cc1cc(N2CCN(C)CC2)nc2ccc(NC(=O)Nc3ccc(Cl)cc3)cc12 | – | inconclusive [inhibitor, single point]
CCCCCNC(=O)c1ccc2c(=O)[nH]c3c(C(=O)NCC4CCCO4)sc(=S)n3c2c1 (stereo not given) | inconclusive: -33.5% [inhibitor] | –
N#Cc1ccc(NC(=O)COCc2cc(-c3ccc4c(c3)OCO4)on2)cc1 | – | inconclusive [inhibitor, single point]
C[C@@H]1[C@H](c2ccccc2)OCCS(=O)(=O)N1Cc1ccc(F)cc1 | – | inconclusive [inhibitor, single point]
COC(=O)C(N)Cc1ccc(Cl)cc1 (stereo not given) | inactive: 4.53% | –
COc1ccc(-c2nc3ccccc3c(=O)n2CC(C)C)cc1 | – | inconclusive [inhibitor, partial curve]
CCOc1ccc(N2CC(NC(=O)c3ccc(S(=O)(=O)N4CCOCC4)cc3)CC2=O)cc1 (stereo not given) | – | inconclusive [inhibitor, partial curve, poor fit]
COc1ccc(C(=O)OCC(=O)Nc2ccc(Cl)c(C(F)(F)F)c2)c(OC)c1OC | – | active: 20.6 µM
CC1(C)OC(=O)C2=C(C[C@@H](CCC(F)(F)F)O[C@H]2c2ccc(F)cc2)O1 | inactive: 4.98% | –
